Test results: the supplement of paper PMC4967469
By IC50 is meant the dose at which the fit gives 50% viability; a fit beyond the top or the lowest dose is shown as a bound at that dose. AUC is the area under the same curve over the 256-fold range up to the top dose, as a fraction; values near 1 show little effect. For part of these data: Any top dose called inferred was derived from the fitted curves, not read from the paper.

Assays:
Test in all cases: Viability of human cancer cell lines after 72 h of drug (GDSC screen)
ZG-10 = compound: CN(C)C/C=C/C(=O)Nc1ccc(C(=O)Nc2cccc(Nc3nccc(-c4cccnc4)n3)c2)cc1 [ZG-10]; settings: top dose 10 µM; top dose inferred
Experimental: (§1)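 Human cancer cell lines in 384-well plates, medium with 10% serum, drug for 72 h over a 256-fold dose range (nine 2-fold or five 4-fold steps up to the top dose). Adherent lines were fixed and stained with the nucleic acid dye Syto60, suspension lines read with resazurin; signal relative to control wells, capped at 0 and 100%. One two-parameter sigmoid per drug and line, fitted in a mixed model over all curves with the slope shared within a line.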

Tubastatin A = compound: CN1CCc2c(c3ccccc3n2Cc2ccc(C(=O)NO)cc2)C1 [Tubastatin A]; settings: top dose 20 µM
Experimental: as §1

XL-880 = compound: COc1cc2c(Oc3ccc(NC(=O)C4(C(=O)Nc5ccc(F)cc5)CC4)cc3F)ccnc2cc1OCCCN1CCOCC1 [XL-880]; settings: top dose 5.12 µM; top dose inferred
Experimental: as §1

Temozolomide = compound: Cn1nnc2c(C(N)=O)ncn2c1=O [Temozolomide]; settings: top dose 30 µM
Experimental: as §1

CI-1040 = compound: O=C(NOCC1CC1)c1ccc(F)c(F)c1Nc1ccc(I)cc1Cl [CI-1040]; settings: top dose 10 µM; top dose inferred
Experimental: as §1

IPA-3 = compound: Oc1ccc2ccccc2c1SSc1c(O)ccc2ccccc12 [IPA-3]; settings: top dose 32 µM; top dose inferred
Experimental: as §1

Cell Line	AUC (ZG-10)	IC50 (ZG-10) [µM]	AUC (Tubastatin A)	IC50 (Tubastatin A) [µM]	AUC (XL-880)	IC50 (XL-880) [µM]	AUC (Temozolomide)	IC50 (Temozolomide) [µM]	AUC (CI-1040)	IC50 (CI-1040) [µM]	AUC (IPA-3)	IC50 (IPA-3) [µM]
TT (thyroid, adherent)	0.907	> 10	0.982	> 20	0.782	3.07	0.975	> 30	0.908	> 10	0.983	> 32
NCI-H2110 (non-small cell lung carcinoma, adherent)	0.985	> 10	0.887	> 20	0.574	0.513	0.978	> 30	0.815	5.68	0.986	> 32
COR-L23 (large cell lung carcinoma, adherent)	0.841	6.67	0.921	> 20	0.797	2.35	0.953	> 30	0.862	8.15	0.709	7.65
HCC1419 (breast, adherent)	0.907	> 10	0.952	> 20	0.979	> 5.12	0.98	> 30	0.905	> 10	0.904	> 32
MDA-MB-330 (breast, adherent)	0.758	3.94	0.931	> 20	0.916	> 5.12	0.984	> 30	0.942	> 10	0.962	> 32
G-MEL (melanoma, adherent)	0.804	4.95	0.982	> 20	0.693	1.1	0.982	> 30	0.23	0.104	0.986	> 32
SK-MEL-3 (melanoma, adherent)	0.738	3.39	0.909	> 20	0.664	0.988	0.983	> 30	0.699	2.5	0.885	> 32
C32 (melanoma, adherent)	0.596	1.17	0.985	> 20	0.773	2.12	0.966	> 30	0.373	0.273	0.946	> 32
LC-1-sq (lung squamous cell carcinoma, adherent)	0.983	> 10	0.954	> 20	0.848	4.86	0.983	> 30	0.885	> 10	0.985	> 32
HCC1954 (breast, adherent)	0.831	7.85	0.974	> 20	0.975	> 5.12	0.981	> 30	0.919	> 10	0.837	26.7
EW-7 (Ewing sarcoma, semi-adherent)	0.627	1.33	0.891	18.4	0.508	0.336	0.981	> 30	0.975	> 10	0.834	17.4
MES-SA (uterus, adherent)	0.617	1.25	0.991	> 20	0.992	> 5.12	0.99	> 30	0.979	> 10	0.831	16.3
RC-K8 (B-cell lymphoma, suspension)	0.912	> 10	0.99	> 20	0.872	3.8	0.99	> 30	0.989	> 10	0.943	> 32
JHH-1 (liver, adherent)	0.77	4.12	0.841	15.7	0.814	3.08	0.983	> 30	0.407	0.339	0.851	28
UACC-893 (breast, adherent)	0.904	> 10	0.976	> 20	0.927	> 5.12	0.961	> 30	0.896	> 10	0.98	> 32
PCI-30 (head and neck, adherent)	0.731	3.35	0.983	> 20	0.779	2.58	0.983	> 30	0.917	> 10	0.985	> 32
SNG-M (endometrium, adherent)	0.579	1.02	0.984	> 20	0.622	0.687	0.983	> 30	0.914	> 10	0.687	6.6
MFE-280 (endometrium, adherent)	0.423	0.363	0.935	> 20	0.519	0.366	0.98	> 30	0.94	> 10	0.958	> 32
M059J (glioma, adherent)	0.748	3.44	0.957	> 20	0.599	0.614	0.953	> 30	0.945	> 10	0.809	18.4
NCI-H2122 (lung adenocarcinoma, adherent)	0.781	3.88	0.986	> 20	0.891	> 5.12	0.987	> 30	0.828	5.63	0.818	16.6
